Data published in the supplement of paper PMC8728848.
The other results are listed elsewhere or left out.

Key:
Test in all cases: glycan array binding signal (z-score within array); higher = stronger binding
Conditions in all cases: glycan notation: IUPAC condensed, linker removed
[1] = biological target: Gal(b1-3)GlcNAc
In short: (§1)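 The binding signal is a Z-score computed within each array. Data were drawn from 3228 arrays in the Consortium for Functional Glycomics database, restricted to those with a known protein sequence. Scores were averaged over arrays of the same protein sequence at different concentrations or buffers, and over linkers, and negative values can be taken as non-binding.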

[2] = biological target: Gal(b1-3)GlcNAc(a1-3)Gal(b1-4)GlcNAc
In short: as §1

[3] = biological target: Gal(b1-3)GlcNAc(a1-6)Gal(b1-4)GlcNAc
In short: as §1

[4] = biological target: Gal(b1-3)GlcNAc(b1-2)Man(a1-3)[Gal(b1-3)GlcNAc(b1-2)Man(a1-6)]Man(b1-4)GlcNAc(b1-4)GlcNAc
In short: as §1

[5] = biological target: Gal(b1-3)GlcNAc(b1-2)Man(a1-3)[Gal(b1-3)GlcNAc(b1-2)Man(a1-6)]Man(b1-4)GlcNAc(b1-4)[Fuc(a1-6)]GlcNAc
In short: as §1

[6] = biological target: Gal(b1-3)GlcNAc(b1-2)Man(a1-3)[GlcNAc(b1-4)][Gal(b1-3)GlcNAc(b1-2)Man(a1-6)]Man(b1-4)GlcNAc(b1-4)GlcNAc
In short: as §1

[7] = biological target: Gal(b1-3)GlcNAc(b1-2)[Gal(b1-3)GlcNAc(b1-6)]Man(a1-6)[Gal(b1-3)GlcNAc(b1-2)Man(a1-3)]Man(b1-4)GlcNAc(b1-4)GlcNAc
In short: as §1

[8] = biological target: Gal(b1-3)GlcNAc(b1-3)Gal(b1-3)GlcNAc
In short: as §1

[9] = biological target: Gal(b1-3)GlcNAc(b1-3)Gal(b1-4)Glc
In short: as §1

[10] = biological target: Gal(b1-3)GlcNAc(b1-3)Gal(b1-4)GlcNAc
In short: as §1

[11] = biological target: Gal(b1-3)GlcNAc(b1-3)Gal(b1-4)GlcNAc(b1-6)[Gal(b1-3)GlcNAc(b1-3)]Gal(b1-4)Glc
In short: as §1

[12] = biological target: Gal(b1-3)GlcNAc(b1-3)Gal(b1-4)[Fuc(a1-3)]GlcNAc(b1-6)[Gal(b1-3)GlcNAc(b1-3)]Gal(b1-4)Glc
In short: as §1

[13] = biological target: Gal(b1-3)GlcNAc(b1-3)GalNAc
In short: as §1

[14] = biological target: Gal(b1-3)GlcNAc(b1-6)Gal(b1-4)GlcNAc
In short: as §1

[15] = biological target: Gal(b1-3)GlcNAc(b1-6)GalNAc
In short: as §1

[16] = biological target: Gal(b1-3)GlcNAc6S
In short: as §1

[17] = biological target: Gal(b1-3)[Fuc(a1-4)]GlcNAc
In short: as §1

[18] = biological target: Gal(b1-3)[Fuc(a1-4)]GlcNAc(b1-2)Man(a1-3)[Gal(b1-3)[Fuc(a1-4)]GlcNAc(b1-2)Man(a1-6)]Man(b1-4)GlcNAc(b1-4)GlcNAc
In short: as §1

[19] = biological target: Gal(b1-3)[Fuc(a1-4)]GlcNAc(b1-2)Man(a1-3)[Gal(b1-3)[Fuc(a1-4)]GlcNAc(b1-2)Man(a1-6)]Man(b1-4)GlcNAc(b1-4)[Fuc(a1-6)]GlcNAc
In short: as §1

[20] = biological target: Gal(b1-3)[Fuc(a1-4)]GlcNAc(b1-3)Gal(b1-3)[Fuc(a1-4)]GlcNAc
In short: as §1

[21] = biological target: Gal(b1-3)[Fuc(a1-4)]GlcNAc(b1-3)Gal(b1-4)GlcNAc
In short: as §1

[22] = biological target: Gal(b1-3)[Fuc(a1-4)]GlcNAc(b1-3)Gal(b1-4)[Fuc(a1-3)]GlcNAc
In short: as §1

[23] = biological target: Gal(b1-3)[Fuc(a1-4)]GlcNAc(b1-6)GalNAc
In short: as §1

[24] = biological target: Gal(b1-3)[GlcNAc(b1-6)]GalNAc
In short: as §1

[25] = biological target: Gal(b1-3)[Neu5Ac(a2-6)]GalNAc
In short: as §1

[26] = biological target: Gal(b1-3)[Neu5Ac(a2-6)]GlcNAc(b1-6)Gal(b1-4)Glc
In short: as §1

[27] = biological target: Gal(b1-3)[Neu5Ac(b2-6)]GalNAc
In short: as §1

[28] = biological target: Gal(b1-4)Gal
In short: as §1

[29] = biological target: Gal(b1-4)GalNAc(a1-3)[Fuc(a1-2)]Gal(b1-4)GlcNAc
In short: as §1

[30] = biological target: Gal(b1-4)GalNAc(b1-3)[Fuc(a1-2)]Gal(b1-4)GlcNAc
In short: as §1

[31] = biological target: Gal(b1-4)Glc
In short: as §1

[32] = biological target: Gal(b1-4)Glc6S
In short: as §1

[33] = biological target: Gal(b1-4)GlcNAc
In short: as §1

[34] = biological target: Gal(b1-4)GlcNAc(a1-6)Gal(b1-4)GlcNAc
In short: as §1

[35] = biological target: Gal(b1-4)GlcNAc(b1-2)Man
In short: as §1

[36] = biological target: Gal(b1-4)GlcNAc(b1-2)Man(a1-3)Man(b1-4)GlcNAc(b1-4)GlcNAc
In short: as §1

[37] = biological target: Gal(b1-4)GlcNAc(b1-2)Man(a1-3)[Gal(b1-4)GlcNAc(b1-2)Man(a1-6)]Man(b1-4)GlcNAc(b1-4)GlcNAc
In short: as §1

B1: RVL (Remusatia vivipara), B5LYJ9 (protein)
chain: MAKLLLFLLPAILGLLVPRSAVALGTNYLLSGQTLDTEGHLKNGDFDLVMQDDCNLVLYNGNWQSNTANNGRDCKLTLTDYGELVIKNGDGSTVWKSGAQSVKGNYAAVVHPDGRLVVLGPSVFKIDPWVRGLNSLRFRNIPFTNNLLFSGQVLYGDGRLTAKNHQLVMQGDCNLVLYGGKYGWQSNTHGNGEHCFLRLNHKGELIIKDDDFKTIWSSRSSSKQGEYVLILQDDGFGVIYGPAIFETSSKRSIAAS
glycan array binding signal (z-score) [1]: -0.311
glycan array binding signal (z-score) [2]: -0.198
glycan array binding signal (z-score) [3]: -0.316
glycan array binding signal (z-score) [4]: 1.33
glycan array binding signal (z-score) [5]: -0.098
glycan array binding signal (z-score) [6]: 0.453
glycan array binding signal (z-score) [7]: 0.123
glycan array binding signal (z-score) [8]: -0.222
glycan array binding signal (z-score) [9]: -0.227
glycan array binding signal (z-score) [10]: -0.252
glycan array binding signal (z-score) [11]: -0.574
glycan array binding signal (z-score) [12]: -0.053
glycan array binding signal (z-score) [13]: -0.055
glycan array binding signal (z-score) [14]: 0.004
glycan array binding signal (z-score) [15]: -0.041
glycan array binding signal (z-score) [16]: -0.087
glycan array binding signal (z-score) [17]: -0.07
glycan array binding signal (z-score) [18]: -0.239
glycan array binding signal (z-score) [19]: 0.116
glycan array binding signal (z-score) [20]: 0.194
glycan array binding signal (z-score) [21]: -0.293
glycan array binding signal (z-score) [22]: -0.138
glycan array binding signal (z-score) [23]: -0.148
glycan array binding signal (z-score) [24]: -0.124
glycan array binding signal (z-score) [25]: 0.005
glycan array binding signal (z-score) [26]: -0.214
glycan array binding signal (z-score) [27]: -0.313
glycan array binding signal (z-score) [28]: -0.187
glycan array binding signal (z-score) [29]: -0.217
glycan array binding signal (z-score) [30]: -0.146
glycan array binding signal (z-score) [31]: -0.167
glycan array binding signal (z-score) [32]: -0.182
glycan array binding signal (z-score) [33]: -0.182
glycan array binding signal (z-score) [34]: -0.142
glycan array binding signal (z-score) [35]: -0.045
glycan array binding signal (z-score) [36]: -0.155
glycan array binding signal (z-score) [37]: 0.527
